In PubChem BioAssay AID1768 (National Center for Advancing Translational Sciences (NCATS), 2009):
Among all 270,000 compounds or so, about 620 (0.23%) were called active. This list was built around the results that the source calls inconclusive (neither active nor inactive); the mix of calls is not that of the screen. Calls come from the whole dose curve; as a rule, active = well fitted inhibition curve with a large enough effect in the polarisation, with a control signal flat (not every such curve was filed as active); inconclusive = small, poorly fitted or top-dose-only effect, or effect the other way, or a change in a side signal; inactive = no such curve, though single readings can be large or run the other way; the % refers to the polarisation. Potencies of inconclusive entries are doubtful fits and often do not repeat. “Side channel” marks fits to a control or component signal instead of the main read-out.

Biological target: Menin (Homo sapiens) (UniProt O00255)
Chain of UniProt O00255 (O00255 whole entry, looked up): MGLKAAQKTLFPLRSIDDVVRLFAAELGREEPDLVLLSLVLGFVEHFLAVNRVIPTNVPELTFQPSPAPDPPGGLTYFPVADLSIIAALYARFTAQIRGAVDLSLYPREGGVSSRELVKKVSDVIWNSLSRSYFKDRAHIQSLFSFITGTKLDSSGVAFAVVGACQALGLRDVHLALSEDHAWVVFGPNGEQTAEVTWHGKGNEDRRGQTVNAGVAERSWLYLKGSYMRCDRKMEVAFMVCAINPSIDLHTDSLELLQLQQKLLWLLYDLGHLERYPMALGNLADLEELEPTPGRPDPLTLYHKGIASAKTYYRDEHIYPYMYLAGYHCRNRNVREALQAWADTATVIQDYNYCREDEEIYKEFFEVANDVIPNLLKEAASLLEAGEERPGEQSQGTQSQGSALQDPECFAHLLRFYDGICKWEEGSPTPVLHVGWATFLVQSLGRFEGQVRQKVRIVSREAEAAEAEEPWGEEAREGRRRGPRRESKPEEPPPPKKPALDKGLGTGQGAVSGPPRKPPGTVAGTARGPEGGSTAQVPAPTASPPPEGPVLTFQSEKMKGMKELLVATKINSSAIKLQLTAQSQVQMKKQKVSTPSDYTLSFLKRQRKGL
Assay: qHTS Assay for Inhibitors Targeting the Menin-MLL Interaction in MLL Related Leukemias: Competition With Texas Red Labeled MLL-derived Mutant Peptide; for FP activity change, negative = inhibition: % of control where 0% means no effect
Conditions: fluorescence polarization; FP activity change, negative = inhibition: at 61.6 µM (top of the series)
Potency is the fitted concentration of half-maximal effect; tags give direction and shape of the fitted curve or compound fluorescence and quenching.

FP activity change, negative = inhibition, inactive:
CC1(C)CC(N2CCCCC2)=CC(=[N+]2CCCCC2)C1 -10.6%
CC(C)n1nnc2cc(C(=O)O)ccc21 -8.01%
COC(=O)c1cc2nc(-c3ccc(OC)c(OC)c3)cc(C(F)(F)F)n2n1 -3.27%
CCN1CCN(C(c2cc3cc4c(cc3[nH]c2=O)OCO4)c2nnnn2C(C)(C)CC)CC1 (stereo unspecified) 2.32%

Potency, inconclusive:
Cc1ccccc1NC(=O)c1ccc(Nc2c([N+](=O)[O-])cc([N+](=O)[O-])c3ccccc23)cc1 39.8 µM [quencher, side channel, single point]
Cc1nn(C)c(C)c1S(=O)(=O)N(CC(=O)N1CCc2ccccc2C1)c1ccc(C(C)C)cc1 5.62 µM [fluorescent, side channel, partial curve]
CCc1ccc2nc(Nc3nc(COC)cc(=O)[nH]3)nc(C)c2c1 11.2 µM [inhibitor, partial curve]
CC(C)(C)C(=O)Nc1ccc(C(=O)Nc2cc(NC(=O)c3ccc(NC(=O)C(C)(C)C)cc3)cc(C(=O)O)c2)cc1 31.6 µM [quencher, side channel, single point]
CCOc1ccc(Oc2nc(Nc3ccc(C)cc3)nc(N(C)C)n2)nn1 7.94 µM [fluorescent, side channel, partial curve]
O=C(O)c1nn2cc(CCO)cnc2c1Cl 31.6 µM [quencher, side channel, single point]
O=C(CCOc1ccccc1)Nc1ccc(Br)cc1 39.8 µM [inhibitor, single point]
Cc1ccc(/C=C2/SC(=O)NC2=S)o1 22.4 µM [inhibitor, single point]
COc1ccc(F)cc1C(=O)C1CCCN(Cc2c[nH]c3ccccc23)C1 (stereo unspecified) 39.8 µM [inhibitor, single point]
C=CCn1c(CSc2nc3ccccc3s2)nnc1SCC(=O)NCc1ccco1 17.8 µM [fluorescent, side channel, partial curve]
O=C(NC(=S)NCc1ccccc1)c1ccccc1[N+](=O)[O-] 39.8 µM [quencher, side channel, single point]
COc1ccc(-c2nc3cccc(C)n3c2NCc2ccco2)cc1OC 25.1 µM [fluorescent, side channel, partial curve]
COc1ccc2cc(C(c3nnnn3Cc3ccc(F)cc3)N3CCCCCC3)c(=O)[nH]c2c1 (stereo unspecified) 39.8 µM [inhibitor, single point]
O=C(CC(Nc1ccc(F)cc1)c1ccccc1)c1ccccc1 (stereo unspecified) 12.6 µM [quencher, side channel, partial curve]
COc1ccccc1CN(Cc1cc2cc(C)cc(C)c2[nH]c1=O)Cc1nnnn1CC1CCCO1 (stereo unspecified) 1 µM [fluorescent, side channel, full curve]
O=C(CN1C(=O)CCS(=O)(=O)c2ccccc21)Nc1ccccc1F 22.4 µM [quencher, side channel, single point]
CN1/C(=c2/s/c(=C3/C(=O)N(c4ccccc4)NC3=Nc3ccccc3)n(C)c2=O)C(C)(C)c2ccccc21 28.2 µM [quencher, side channel, partial curve]
CN(C)/N=C/c1c(O)ccc2ccccc12 25.1 µM [quencher, side channel, single point]
N#CC1=C(N)N2C(=C(C#N)C1c1ccccc1)Sc1ccccc12 (stereo unspecified) 3.55 µM [inhibitor, single point]
CNc1sc(C(=O)c2ccccc2F)c(N)c1-c1nc2ccccc2s1 25.1 µM [quencher, side channel, single point]
O=C(CCCC(=O)OCC(F)(F)C(F)F)Nc1nccs1 7.08 µM [fluorescent, side channel, single point]
Clc1cc2nc(-c3cccnc3Cl)[nH]c2cc1Cl 39.8 µM [inhibitor, single point]
O=C(N/N=C/c1ccc(OCc2ccccc2)cc1)c1ccc(O)cc1 28.2 µM [quencher, side channel, partial curve]
Cc1ccc(Sc2cc(N3CCOCC3)nc(-c3ccccc3)n2)cc1 5.01 µM [inhibitor, full curve, poor fit]
CCN1CCN(c2cc(SC(C)C)nc(-c3ccc(OC)cc3)n2)CC1 22.4 µM [fluorescent, side channel, partial curve]
C=C(C)CC(NCCc1ccccc1)c1ccco1 (stereo unspecified) 1.58 µM [inhibitor, partial curve]
COc1ccccc1C(=O)Nc1nc(-c2ccc3c(c2)OCCO3)cs1 3.98 µM [quencher, side channel, full curve, poor fit]
CS(=O)(=O)Nc1ccc(C(=O)Nc2ccc3ccccc3c2)cc1 35.5 µM [fluorescent, side channel, single point]
Cc1ccc(S(=O)(=O)/N=C2\C=C(Nc3cccc(C(=O)O)c3)C(=O)c3ccccc32)cc1 11.2 µM [quencher, side channel, partial curve]
Cc1noc(C)c1CSc1nc2ccccc2nc1NS(=O)(=O)c1ccc(Cl)cc1 11.2 µM [quencher, side channel, partial curve]
FC(F)(F)c1ccc(-c2noc(-c3ccccc3)c2I)cc1 22.4 µM [fluorescent, side channel, partial curve]
CCCCn1c(/N=C/c2c[nH]c3ccccc23)nc2ccccc21 14.1 µM [quencher, side channel, partial curve]
